Reference: PMC2933790

Biological target: T1, properdin (human), P27918
T1 chain: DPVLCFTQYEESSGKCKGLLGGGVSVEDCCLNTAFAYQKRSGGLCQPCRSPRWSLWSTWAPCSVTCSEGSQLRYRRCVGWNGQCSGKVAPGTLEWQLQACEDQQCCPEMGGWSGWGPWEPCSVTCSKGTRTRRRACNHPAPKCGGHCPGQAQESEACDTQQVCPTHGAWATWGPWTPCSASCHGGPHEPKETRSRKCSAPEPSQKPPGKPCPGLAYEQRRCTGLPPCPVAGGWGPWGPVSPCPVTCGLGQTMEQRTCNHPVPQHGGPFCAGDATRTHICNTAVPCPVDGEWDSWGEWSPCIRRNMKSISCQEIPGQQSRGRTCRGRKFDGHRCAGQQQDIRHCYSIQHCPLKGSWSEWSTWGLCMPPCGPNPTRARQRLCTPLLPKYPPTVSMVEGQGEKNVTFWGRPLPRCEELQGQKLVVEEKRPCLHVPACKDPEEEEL
Experiment: SEC
Details: remark: other sources report otherwise

stoichiometry N: 2 and 3 and 4
B1: properdin, P27918 28-469 (natural protein)
chain: DPVLCFTQYEESSGKCKGLLGGGVSVEDCCLNTAFAYQKRSGGLCQPCRSPRWSLWSTWAPCSVTCSEGSQLRYRRCVGWNGQCSGKVAPGTLEWQLQACEDQQCCPEMGGWSGWGPWEPCSVTCSKGTRTRRRACNHPAPKCGGHCPGQAQESEACDTQQVCPTHGAWATWGPWTPCSASCHGGPHEPKETRSRKCSAPEPSQKPPGKPCPGLAYEQRRCTGLPPCPVAGGWGPWGPVSPCPVTCGLGQTMEQRTCNHPVPQHGGPFCAGDATRTHICNTAVPCPVDGEWDSWGEWSPCIRRNMKSISCQEIPGQQSRGRTCRGRKFDGHRCAGQQQDIRHCYSIQHCPLKGSWSEWSTWGLCMPPCGPNPTRARQRLCTPLLPKYPPTVSMVEGQGEKNVTFWGRPLPRCEELQGQKLVVEEKRPCLHVPACKDPEEEEL

Values joined by “and” are separate entries in the source; they are usually repeats but may differ in a detail not shown here. Identical values can stand only once.
